From the supplement of paper PMC4466236
Whole data set: some 33,000 sequences, median “E-score (dimensionless, -0.5 to 0.5)” near -0.058, cut for the highest 2% near 0.35. Some of the results follow.

Each sequence was assayed on MvaT (assay: PBM 8-mer E-score (mean of HK and ME arrays) (E-score (dimensionless, -0.5 to 0.5)); higher = stronger relative binding preference; most listed sequences are background and not binding sites).
How it was run: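 Full-length P. aeruginosa MvaT, with glutathione S-transferase fused to its N-terminus (cloned into pTH6838 by isothermal assembly), was tested by protein binding microarray using a previously described protocol. Two universal double-stranded 60-mer arrays (ME and HK) were used, each with a constant 25-mer primer region and a variable 35-mer region covering all 8-mers. The rank-based 8-mer E-score (-0.5 to 0.5) is the mean of the two arrays, parsed with a custom Python script.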

Sequence | PBM 8-mer E-score
CAGATCCC | -0.0836
ATAAGATC | 0.15
CACAACCG | -0.028
GGCAGCCA | -0.106
CCTTCTTA | 0.0841
GCTCTAGA | -0.172
ATGGACGA | -0.11
CTACTTGA | -0.0549
ATGTGGAC | -0.162
ATAGTTCG | 0.161
CTGTGAAA | 0.0708
CAGGCTAG | -0.232
ACGCACGA | -0.161
CGTGTCAG | -0.0796
AAATTCCT | 0.0408
GAAACTAC | 0.161
CCTCCAGC | -0.389
ATATACAT | 0.365
ATTGTTTA | 0.241
GAACACTA | 0.0437
AGGTATTG | 0.201
ACGACCTC | -0.143
CATTGTAG | -0.0244
CTTGTTCC | -0.074
TAACAGTA | 0.244

Sequence | PBM 8-mer E-score
CGCTACGA | -0.149
CGTGCCCC | -0.248
CACAGGAG | -0.171
CTCGAACC | -0.209
CTGTGTGC | 0.0347
GCGAGCTA | -0.0301
AGAGTAAA | 0.099
ACAGTCAA | 0.0297
ACGTTACT | 0.0844
CATTGTCG | -0.014
TCAAAGCA | 0.0511
AACACAAA | 0.216
ATGCGTCC | -0.205
ATAGTAAC | 0.271
GGACGCAA | -0.0801
TATACTAA | 0.391
ATATTCGG | 0.143
ATTTACGC | 0.112
GGCGGCCA | -0.215
GGCGCCAA | -0.0885
CGTCAGTC | -0.295
AAGTTTCA | 0.303
CGCACACA | 0.0262
GCTTGCTA | -0.156
AGTTGAGA | 0.101

Sequence | PBM 8-mer E-score
CTGATAAA | 0.169
ACTATATA | 0.452
CCCGACCC | -0.243
ACCGAGTC | -0.253
ACCGACAG | -0.0669
CATGCTAC | -0.164
AGGCCCAG | -0.138
GATAGCCA | -0.176
AGACGATC | -0.0554
ACTGGGAC | -0.0624
CCGGAGTA | -0.105
CATACCAA | 0.0226
CTGCGTTC | -0.124
GCACAGAA | -0.102
GCACAGCA | -0.115
AACAACGT | 0.124
GGACCGTA | -0.168
ATCGTCTG | -0.138
CCCGCGGG | -0.33
ACGTGCCA | -0.00107
ACGGGGAA | -0.0252
AAACCAGA | 0.114
ACAGATGA | -0.0583
AACACCCT | -0.033
GCGTGGCC | -0.246

Sequence | PBM 8-mer E-score
ATTGGTAA | 0.196
AGCGATGC | -0.239
CTCGAGCA | -0.0957
CGGCCTTA | -0.0675
ACAAGTGC | -0.112
AGAATCAT | 0.148
CTTCATCC | -0.134
AAAGTGGT | 0.0366
ACACATAC | 0.171
ATCAAGCC | -0.141
TCATAAAA | 0.23
CCGCGGGC | -0.167
CTAAATGA | 0.126
AAGCCCTC | -0.349
ACTTGAAG | 0.0371
ATTCATCG | 0.0726
CGTGCCGC | -0.064
ACACTGAG | -0.133
ATCTCTGA | -0.138
CCTAACCG | -0.115
CAAAACGG | -0.0343
GCTCTTCC | -0.164
AAACCGAC | 0.0819
AATCCGAT | 0.046
CAGAAACA | 0.238

Sequence | PBM 8-mer E-score
GCAAACTA | 0.192
AGCGGTTC | -0.145
ACACCTAA | 0.0706
ACGGAATG | -0.0102
GGACTGAA | -0.085
CCAGTGTC | -0.126
GGTGATAA | 0.101
AGGTAAAT | 0.161
CGGGGCTC | -0.358
CTAAACAA | 0.111
ATCCCCCG | -0.154
ACCAACCT | -0.0228
CGAGGGGA | -0.279
CGTTAATC | 0.127
GCTATTAC | 0.121
ACAGTCTA | -0.0014
CCACTTGA | 0.0323
TAGCACTA | 0.048
GGGAATAC | 0.0837
GGATGCCA | -0.193
GGTCAGTA | -0.116
CCGAGACC | -0.296
GTACTATA | 0.329
TTAATCAA | 0.271
AACTTACG | 0.318

Sequence | PBM 8-mer E-score
CAGGAAAC | 0.0615
CAAAAGCA | 0.0104
GTGAAAAC | 0.109
AGCGAAGC | -0.284
AAGTTGAC | 0.117
CATCACCC | -0.207
GGAGCAAC | -0.202
ACAGCGCT | -0.187
GGGAAACC | -0.279
AAATCCGG | 0.0185
GAACCGAA | -0.0231
CATGGGAC | -0.172
CGACTTTC | 0.0202
GCACAGTA | 0.0251
GCAGGGCC | -0.237
AACGGTCA | -0.0983
TAAAGCTA | 0.0834
CGCCGCTA | 0.1
AGTGCCCA | -0.176
AGTCCTTG | -0.0717
GATGGCAA | -0.125
GGACGGAC | -0.303
AATACCGG | 0.1
CGCAAGAA | -0.0532
CCGAGACG | -0.283

Sequence | PBM 8-mer E-score
AACTGCCG | 0.0494
GCAAGAAA | 0.0406
ATCGTATC | -0.058
AGCATACG | -0.144
ATCCCACG | -0.158
CTTAGGTC | -0.118
AACTGCCA | -0.143
AGCGCATA | 0.0722
CGCTCAGA | -0.212
CCTTCGGA | -0.341
ACGTCATA | 0.0282
CCTATAGC | -0.119
ACCATCAA | -0.124
CCGTCAGC | -0.267
CTAATATC | 0.299
GCCAGATA | -0.147
CTCACTAA | -0.0215
CCGTGGAG | -0.139
CCTGCCCA | -0.219
CAGTCCGA | -0.179
CCCTCATC | -0.274
CTGTAAAG | -0.0752
